According to publication PMC5653232 (Cell reports, 2017):

Test system: H3K9Cme3-NCP
Test: EMSA, CHD3 PHD1/2 with H3K9Cme3-NCP
Format: binding, human
Conditions: 5 nM NCP, 8.3 mM Tris-HCl pH 7.5, 62.5 mM NaCl, 5% native gel

B1: CHD3 PHD1/2: natively linked tandem PHD fingers of CHD3, construct PHD1/2 (373–508) (protein)
chain: GYETDHQDYCEVCQQGGEIILCDTCPRAYHLVCLDPELDRAPEGKWSCPHCEKEGVQWEAKEEEEEYEEEGEEEGEKEEEDDHMEYCRVCKDGGELLCCDACISSYHIHCLNPPLPDIPNGEWLCPRCTCPVLKGR
modifications: left off: GST, end not stated, cleaved
concentration at which shift of the H3K9Cme3-NCP band is visible: 3 µM
